Assay results reported in the supplement of paper PMC9334596.
Where “and” joins values, the source holds several entries; their conditions need not be identical. Equal values may be shown once. The full ranking holds about 5,300 compounds; the median of “PER2::LUC luminescence relative to vehicle control” is about 0.96, and the highest 2% start at about 1.3. Some of the results follow.

Test system: mPer2Luc MEF
Assay: PER2::LUC luminescence relative to vehicle control (fold of vehicle); higher = higher PER2::LUC reporter signal
Details: 10 µM
In short: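 In 384-well plates, ~3000 mPer2Luc reporter mouse embryonic fibroblasts per well were cultured in DMEM with 10% FBS at 37 °C and 5% CO2 for 48 h before compounds from commercial libraries were added at 10 μM. ONE-Glo luciferase readings were taken 24 h and 30 h after treatment. Each value is PER2::LUC luminescence given as fold of vehicle control.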

Compound | PER2::LUC luminescence (time after treatment 24 h) | PER2::LUC luminescence (time after treatment 30 h)
N#C/C(=C\c1ccc(-c2cc(Cl)ccc2Cl)o1)C(=O)Nc1cccc2ncccc12 | 1.19 | 1.2
O=C(CCc1ccc(O)cc1)c1c(O)cc(O)cc1OC1OC(CO)C(O)C(O)C1O (stereo not drawn) | 1.02 | 0.948
CN(C)CC(=O)Nc1ccc2[nH]c(=O)c3ccccc3c2c1 | 0.918 and 0.897 and 0.804 | 0.852 and 0.813
C/C=C1\C(=O)C[C@H]2[C@@H]3CCC4=CC(=O)CC[C@]4(C)[C@H]3CC[C@]12C | 0.65 | 0.646
CN(C)CCN1C(=O)c2ccccc2N(C)c2ccccc21 | 1.01 | 0.99
COc1ccc(OC)c(C(O)CNC(=O)CN)c1 (stereo not drawn) | 1.09 | 1.07
CC(S)C(=O)NCC(=O)O (stereo not drawn) | 1.24 | 0.776
CNCc1ccc(-c2cc(-c3nc(-c4ccc(S(=O)(=O)C(C)C)cc4)cnc3N)on2)cc1 | 0.478 | 0.513
C=CC(C)(O)CCC1C(=C)CC(OC(C)=O)C2C(C)(C)CCCC12C (stereo not drawn) | 0.989 | 1.01
CN1CCN(CCCN2c3ccccc3Sc3ccc(C(F)(F)F)cc32)CC1 | 0.58 and 0.638 | 0.825 and 0.649
C=CC(=O)Nc1cc2c(Nc3ccc(F)c(Cl)c3)ncnc2cc1OCCCN1CCOCC1 | 0.311 and 0.162 | 0.408 and 0.174
O=C(NCc1ccccc1)c1csc(Nc2ccncn2)n1 | 0.862 | 0.811
COC(=O)C[C@H]1C(C)(C)C2(O)OC34CC2C(=O)[C@]1(C)C3CC[C@]1(C)C4=CC(=O)O[C@H]1c1ccoc1 (stereo partly drawn) | 0.882 | 0.884
CC(C)NCC(O)COc1ccccc1-n1cccc1 (stereo not drawn) | 0.777 | 0.737
Cn1c(=O)c2nc(C3CCCC3)[nH]c2n(C)c1=O | 0.89 | 1.13
COc1ccc2cc(-c3cc(-c4cc(Cl)cc(Cl)c4)nn3[C@@H](C)c3ccc(C(=O)NCCC(=O)O)cc3)ccc2c1 | 1.06 | 0.976
OC(CNCC(O)C1CCc2cc(F)ccc2O1)C1CCc2cc(F)ccc2O1 (stereo not drawn) | 0.637 and 0.59 | 0.652 and 0.656
C=CCN1CCc2nc(N)sc2CC1 | 1.01 | 0.887
O=C(CCc1ccc(O)cc1)c1c(O)cc(O)cc1O | 1.14 | 1.11
CC[C@H](C)[C@H](N)C1=N[C@H](C(=O)N[C@@H](CC(C)C)C(=O)N[C@H](CCC(=O)O)C(=O)N[C@H](C(=O)N[C@H]2CCCCNC(=O)[C@H](CC(N)=O)NC(=O)[C@@H](CC(=O)O)NC(=O)[C@H](Cc3cnc[nH]3)NC(=O)[C@@H](Cc3ccccc3)NC(=O)[C@H]([C@@H](C)CC)NC(=O)[C@@H](CCCN)NC2=O)[C@@H](C)CC)CS1 | 0.828 | 0.981
N#Cc1cccc(-c2c[nH]c3ncnc(N4CCOCC4)c23)c1 | 1.03 | 1.02

Compound | PER2::LUC luminescence (time after treatment 24 h) | PER2::LUC luminescence (time after treatment 30 h)
CC(=O)C1=C(O)C=C2Oc3c(C(C)=O)c(O)c(C)c(O)c3[C@]2(C)C1=O | 1.03 | 0.928
O=c1cc(-c2ccc(O)cc2)oc2ccc(O)cc12 | 1.72 | 1.87
CC(=O)NS(=O)(=O)c1ccc(NC(=O)c2ccccc2C(=O)O)cc1 | 0.828 | 1.12
NC(=O)c1cccc2cn(-c3ccc([C@@H]4CCCNC4)cc3)nc12 | 0.753 | 0.775
Cc1c[nH]c2ccccc12 | 0.822 | 0.868
C=CCNC(N)=S | 0.925 | 0.877
CN(C)CCOC(C)(c1ccccc1)c1ccccn1 (stereo not drawn) | 1.1 | 0.831
COc1cccc(N2CCN(C3=Nc4c(F)cccc4[C@H](CC(=O)O)N3c3cc(C(F)(F)F)ccc3OC)CC2)c1 | 0.979 | 0.935
CC(=O)c1ccc2c(c1)N(CCCN(C)C)c1ccccc1S2 | 0.712 | 0.636
COc1cccc(-c2cc(=O)c3ccccc3o2)c1N | 0.951 | 0.985
CCCCCCCCCCCCCCC[C@H](O)[C@H](N)CO (racemic) | 0.939 | 0.88
CC(C)(C#N)c1cc(Cn2cncn2)cc(C(C)(C)C#N)c1 | 0.927 | 0.862
Cc1csc2c(N[C@@H](C)CN3CCN(S(=O)(=O)c4ccc(Cl)c(Cl)c4)CC3)ncnc12 | 0.157 | 0.178
CN(C)CC1CCC2=C(C1=O)C(c1ccc(Cl)c(Cl)c1)C1=C(CCC(CN(C)C)C1=O)O2 (stereo not drawn) | 1.15 | 1.08
C=CC(C1=CC(=O)C(OC)=CC1=O)c1ccc(OC)cc1 (stereo not drawn) | 1.16 | 1.02
COc1cc2nccc(Oc3ccc(NC(=O)Nc4cc(C)on4)c(Cl)c3)c2cc1OC | 0.535 and 0.522 | 0.469 and 0.418
C[C@@H](O)[C@H]1C(=O)N2C(C(=O)O)=C(S[C@@H]3CN[C@H](CNS(N)(=O)=O)C3)[C@H](C)[C@H]12 | 1.02 and 1.15 | 0.926 and 1.05
Oc1c(I)cc(Cl)c2cccnc12 | 0.964 | 1.02
O=C(Nc1ccccc1C(=O)NC1CCCCNC1=O)c1cc2ccccc2s1 (stereo not drawn) | 0.778 | 0.814
Cc1ccc(C2Nc3ccccc3-n3c(-c4ccccc4)c4c(=O)n(C)c(=O)n(C)c4c32)o1 (stereo not drawn) | 0.901 | 0.94
CC(C)OC(=O)N1CCC(Oc2ncnc3c2cnn3-c2ccc(S(C)(=O)=O)cc2F)CC1 | 1.05 | 1.11

Compound | PER2::LUC luminescence (time after treatment 24 h) | PER2::LUC luminescence (time after treatment 30 h)
Oc1cc(O)c2c(c1)O[C@H](c1cc(O)c(O)c(O)c1)[C@H](O)C2 | 0.951 | 0.915
Nc1ccn([C@H]2CC[C@@H](CO)O2)c(=O)n1 | 0.888 and 0.99 | 1.12 and 0.974
CN(C(=O)C(Cl)Cl)c1ccc(OC(=O)c2ccco2)cc1 | 0.818 | 0.788
CCc1cc(Nc2nccc(-c3c(-c4ccc(OC)c(C(=O)Nc5c(F)cccc5F)c4)nc4ccccn34)n2)c(OC)cc1N1CCC(N2CCN(S(C)(=O)=O)CC2)CC1 | 1.01 | 0.958
O=C1c2ccc(O)c(O)c2C(=O)c2c(O)ccc(O)c21 | 0.912 | 0.882
COc1cc(/C=C/C(N)=O)cc(OC)c1OC | 1.06 and 0.932 | 1.07 and 0.886
CN[C@@H](C)C(=O)N[C@H]1CN(C(=O)CC(C)C)CC[C@H]2CC[C@@H](C(=O)NC(c3ccccc3)c3ccccc3)N2C1=O | 1.1 | 1.16
COc1ccccc1N1CCN(CCCCN2C(=O)c3ccccc3C2=O)CC1 | 0.984 and 0.869 | 1.08 and 0.813
CN1[C@@H]2CC[C@H]1C[C@@H](OC(=O)c1c[nH]c3ccccc13)C2 | 0.931 and 0.864 | 0.967 and 0.93
Cc1cccc(C)c1OCC(C)N (stereo not drawn) | 1.07 and 0.923 | 0.872 and 0.857
C/C=C/C(=O)N1C(=O)OC[C@@H]1Cc1ccccc1 | 0.864 | 0.846
COc1ccccc1OCC(O)CO (stereo not drawn) | 0.827 | 0.929
Nc1nc(CC(=O)Nc2ccc(CCNC[C@H](O)c3ccccc3)cc2)cs1 | 0.958 | 0.9
NC[C@@H]1O[C@H](O[C@H]2[C@@H](O)[C@H](O[C@@H]3[C@@H](O)[C@H](N)C[C@H](N)[C@H]3O[C@H]3O[C@H](CO)[C@@H](O)[C@H](O)[C@H]3N)O[C@@H]2CO)[C@H](N)[C@@H](O)[C@@H]1O | 1.12 | 1.13
CC[C@]1(O)C[C@H]2CN(CCc3c([nH]c4ccccc34)[C@@](C(=O)OC)(c3cc4c(cc3OC)N(C=O)[C@H]3[C@@](O)(C(=O)OC)[C@H](OC(C)=O)[C@]5(CC)C=CCN6CC[C@]43[C@@H]65)C2)C1 | 0.347 | 0.366
COc1cc(C)c2c(c1C=O)Oc1c(c(C)c(O)c3c1C(O)OC3=O)OC2=O (stereo not drawn) | 0.967 | 0.95
CC(=O)[C@H]1CC[C@H]2[C@@H]3C=CC4=CC(=O)CC[C@@]4(C)[C@@H]3CC[C@]12C | 1.15 | 1.07
CCOc1ccc(Nc2nc(-c3c(C)nc4ccccn34)cs2)cc1 | 1.07 | 1.02
Clc1ccc(Nc2nc3ccccc3c3nc(C4CCCCC4)[nH]c23)cc1Cl | 0.84 | 0.867
Cc1cc(=O)[nH]c(=S)[nH]1 | 0.733 | 0.882
CC1(C)C2CCC1(C)C(O)C2 (stereo not drawn) | 1.1 | 0.997

Compound | PER2::LUC luminescence (time after treatment 24 h) | PER2::LUC luminescence (time after treatment 30 h)
Cc1cc(/C=C/C#N)cc(C)c1Nc1ccnc(Nc2ccc(C#N)cc2)n1 | 0.337 | 0.424
C=C1C(=O)[C@]23[C@H](O)[C@H]1CC[C@H]2[C@@]12CO[C@]3(O)[C@@H](O)[C@@H]1C(C)(C)CC[C@@H]2O | 1.21 | 0.749
NC(=O)c1ccc2[nH]ccc2c1 | 1.05 | 0.929
CCCCC[C@H](O)/C=C/C1=C(CCCCCCC(=O)O)C(=O)CC1 | 1.07 | 1.01
CCOc1cc2ncc(C#N)c(Nc3ccc(F)c(Cl)c3)c2cc1NC(=O)/C=C/CN(C)C | 0.424 | 0.146
CC1=CC[C@@]2(C)CC[C@@](O)(C(C)C)[C@@H]2[C@@H](OC(=O)c2ccc(O)cc2)C1 | 1.08 | 1.15
CCCc1c(-c2ccc(O)cc2)nn(-c2ccc(O)cc2)c1-c1ccc(O)cc1 | 1.05 | 0.928
Cc1oc(=O)oc1COC(=O)C1=C([C@H]2CCCO2)S[C@@H]2[C@@H]([C@@H](C)O)C(=O)N12 | 1.04 | 1
Oc1c(Cl)cc(Cl)c(Cl)c1Cc1c(O)c(Cl)cc(Cl)c1Cl | 0.616 | 0.54
Cc1c(N(C)C)c(=O)n(-c2ccccc2)n1C | 0.972 and 0.983 | 0.968 and 0.942
CCN(CC)CCNC(=O)c1c(C)[nH]c(/C=C2\C(=O)Nc3ccc(F)cc32)c1C | 0.363 | 0.37
COc1ccc(/C=C/C(=O)Nc2ccccc2C(=O)O)cc1OC | 0.844 and 0.327 | 
OCC(O)COc1cccc2ccccc12 (stereo not drawn) | 0.928 | 1.04
CCOC(=O)C1=C(COCCN)NC(C)=C(C(=O)OC)C1c1ccccc1Cl (stereo not drawn) | 0.874 and 0.677 and 0.45 | 0.758 and 0.718 and 0.556
CC(=O)N1CCCC1C(=O)O (stereo not drawn) | 1.03 | 1.02
N#Cc1cnc2c(Cl)cc(NCc3cn(CCN4CCCCCC4)nn3)cc2c1Nc1ccc(F)c(Cl)c1 | 0.736 | 0.783
Oc1ccc(/C=C/c2cc(O)cc(O)c2)cc1 | 1.46 | 1.29
CC[C@H](C)[C@H](NC(=O)[C@H](Cc1ccc(O)cc1)NC(=O)[C@@H](NC(=O)[C@H](CCCNC(=N)N)NC(=O)[C@@H](N)CC(=O)O)C(C)C)C(=O)N[C@@H](Cc1cnc[nH]1)C(=O)N1CCC[C@H]1C(=O)N[C@@H](Cc1ccccc1)C(=O)O | 0.985 | 0.95
O=C1NC(=NCc2cccs2)S/C1=C\c1ccc2ncccc2c1 | 0.921 | 0.904
